Laboratory results from the antibiotic and cytotoxicity screens of Wong et al. (2023).
This is one part of the list.

Experiments:
[1] = tested on: HSkMC (human skeletal muscle cells); assay: cytotoxicity call (relative viability < 0.9); conditions: 10 µM
[2] = tested on: HepG2; assay: cytotoxicity call (relative viability < 0.9); conditions: 10 µM
[3] = tested on: S. aureus RN4220; assay: growth inhibition call (relative growth <= 0.2); conditions: 50 µM

Compound | cytotoxicity call [1] | cytotoxicity call [2] | growth inhibition call [3]
CCCCCCCCCCCCCCCc1cccc(OCC)c1C(=O)Nc1ccc(Cl)c(C(F)(F)F)c1 | inactive | inactive | inactive
CO[C@H]1CN(C)C(=O)c2ccc(NS(=O)(=O)CC(F)(F)F)cc2OC[C@H](C)N(C(=O)NC(C)C)C[C@H]1C | inactive | inactive | inactive
C[C@@H]1CCCCO[C@H](CN(C)CC2CCCCC2)[C@H](C)CN([C@H](C)CO)C(=O)c2cc(NS(=O)(=O)c3ccc(Cl)cc3)ccc2O1 | inactive | inactive | inactive
CCOC(=O)C1=CC2(CC)CCCN3CCc4c(n1c1ccccc41)C32 (configuration not stated) | inactive | inactive | inactive
Cc1ccc(S(=O)(=O)Nc2cccc3c2O[C@H](CN(C)Cc2ccc(C(F)(F)F)cc2)[C@@H](C)CN([C@H](C)CO)C3=O)cc1 | inactive | inactive | inactive
CC(C)CC#Cc1ccc2c(c1)O[C@H](CN(C)C(=O)Cc1cccnc1)[C@H](C)CN([C@@H](C)CO)S2(=O)=O | inactive | inactive | inactive
Clc1ccc(C(c2ccccc2Cl)C(Cl)Cl)cc1 (configuration not stated) | inactive | inactive | inactive
Cc1cc(NC(=O)[C@@H]2CCCN2)no1 | inactive | inactive | inactive
O=C1O[C@@H](c2ccccc2)[C@@H](c2ccccc2)N2[C@@H](c3ccc(O)cc3)[C@]3(C(=O)Nc4ccc(C#CC5=CCCCC5)cc43)[C@@H](C(=O)N3CCCCCCC3)[C@H]12 | inactive | inactive | inactive
CC(=O)SC1CC2=CC(=O)CCC2(C)C2CCC3(C)C(CCC34CCC(=O)O4)C12 (configuration not stated) | inactive | inactive | inactive
O=C(C[C@@H]1CC[C@H](NC(=O)CN2CCOCC2)[C@@H](CO)O1)NCCc1ccccc1 | inactive | inactive | inactive
COCC#Cc1ccc2c(c1)O[C@@H](CN(C)C(=O)CN(C)C)[C@@H](C)CN([C@H](C)CO)S2(=O)=O | inactive | inactive | inactive
Cc1ccc(S(=O)(=O)Nc2ccc3c(c2)C(=O)N([C@H](C)CO)C[C@@H](C)[C@@H](CN(C)C(=O)NC2CCCCC2)OCCCC[C@H](C)O3)cc1 | inactive | inactive | inactive
COc1ccc(NC(=O)Nc2ccc3c(c2)C(=O)N([C@H](C)CO)C[C@@H](C)[C@@H](CN(C)S(=O)(=O)c2cn(C)cn2)O3)cc1 | inactive | inactive | inactive
CCO[C@H]1OC(C(=O)N2CCOCC2)=C[C@@H](c2ccc3c(c2)OCO3)[C@@H]1CCCOC(=O)NCCCCCC(=O)NO | inactive | inactive | inactive
OCc1ccc2c(c1)OCCO2 | inactive | inactive | inactive
COc1ccc([C@@H]([C@H](Cc2ccccc2)OC(C)=O)N2C[C@H]3[C@@H]([C@@H](O)c4ccccc4)ON(C)[C@H]3[C@@H]2Cc2ccccc2)cc1 | inactive | active | inactive
NCc1ccc(-c2ccccc2O)cc1 | inactive | inactive | inactive
C[C@H](NC(=O)C[C@H]1C[C@H]2c3cc(NC(=O)Nc4ccc(C(F)(F)F)cc4)ccc3O[C@H]2[C@H](CO)O1)c1ccccc1 | inactive | inactive | inactive
COc1ccc(S(=O)(=O)Nc2ccc3c(c2)CC(=O)N([C@H](C)CO)C[C@H](C)[C@@H](CN(C)CC2CC2)O3)cc1 | inactive | inactive | inactive

Compound | cytotoxicity call [1] | cytotoxicity call [2] | growth inhibition call [3]
C[C@@H]1CCCCO[C@H](CN(C)Cc2ccc(Cl)c(Cl)c2)[C@@H](C)CN([C@H](C)CO)C(=O)c2cc(N(C)C)ccc2O1 | inactive | inactive | inactive
C[C@@H]1CN([C@H](C)CO)S(=O)(=O)c2ccc(-c3ccncc3)cc2O[C@H]1CN(C)C(=O)c1cccc(F)c1 | inactive | inactive | inactive
C[C@H]1CN([C@@H](C)CO)C(=O)c2cccc(NC(=O)Nc3ccccc3)c2O[C@@H]1CN(C)Cc1ccc(Cl)c(Cl)c1 | active | inactive | inactive
CC(=O)CC(=O)O | inactive | inactive | inactive
COc1cccc(NC(=O)N(C)C[C@@H]2Oc3ncc(C#Cc4ccncc4)cc3C(=O)N([C@@H](C)CO)C[C@@H]2C)c1 | inactive | inactive | inactive
O=C1NC(=S)N/C1=C\c1ccco1 | inactive | inactive | inactive
O=C(CCCCCCC(=O)Nc1cccc(C(=O)NCCOCCOCCNC(=O)c2cccc(NC(=O)CCCCCCC(=O)NO)c2)c1)NO | inactive | inactive | inactive
C[C@H](CO)N1C[C@H](C)[C@@H](CN(C)C(=O)Nc2ccc(F)cc2)OCCCC[C@H](C)Oc2ccc(NC(=O)CCC(F)(F)F)cc2C1=O | inactive | inactive | inactive
CCCCCCOc1cccc(N)c1 | inactive | inactive | inactive
COc1ccccc1C#Cc1cnc2c(c1)C(=O)N([C@H](C)CO)C[C@H](C)[C@@H](CN(C)C(=O)CN(C)C)O2 | inactive | inactive | inactive
NCC[C@H]1CC[C@@H](NC(=O)Nc2ccc(F)cc2)[C@H](CO)O1 | inactive | inactive | inactive
COc1ccc(NC(=O)N(C)C[C@@H]2OCCCC[C@@H](C)Oc3ccc(NC(=O)Nc4cccc5ccccc45)cc3C(=O)N([C@H](C)CO)C[C@@H]2C)cc1 | inactive | inactive | inactive
C[C@@H]1CN([C@@H](C)CO)C(=O)Cc2cc(NC(=O)Cc3ccccc3)ccc2O[C@H]1CN(C)S(=O)(=O)c1cccs1 | inactive | inactive | inactive
Cc1ccc(C(=N)NO)n1C | inactive | inactive | inactive
COc1cc(NS(=O)(=O)c2ccc(N)cc2)ncn1 | inactive | inactive | inactive
Cc1ccc(S(=O)(=O)Nc2ccc3c(c2)C(=O)N([C@H](C)CO)C[C@H](C)[C@@H](CN(C)C(=O)Nc2cccc4ccccc24)OCCCC[C@H](C)O3)cc1 | inactive | inactive | inactive
Cc1noc(C)c1NC(=O)Nc1ccc2c(c1)C(=O)N([C@H](C)CO)C[C@H](C)[C@@H](CN(C)Cc1ccc(Cl)c(Cl)c1)OCCCC[C@@H](C)O2 | inactive | inactive | inactive
NNC(=O)[C@@H]1C(c2ccccc2)[C@H]1C(=O)NN (some centres not stated) | inactive | inactive | inactive
C[C@H]1CCCCO[C@@H](CN(C)C(=O)Nc2ccccc2)[C@@H](C)CN([C@@H](C)CO)C(=O)c2cc(NC(=O)CCC(F)(F)F)ccc2O1 | inactive | inactive | inactive
CCC(=O)N1C[C@]2(C1)CN([C@H](CO)c1[nH]c3cc(ccc3c12)OC)S(=O)(=O)C | inactive | inactive | inactive

Compound | cytotoxicity call [1] | cytotoxicity call [2] | growth inhibition call [3]
COCC(=O)N1C[C@]2(CN(C2)C(=O)CN2CCOCC2)c2c([nH]c3cc(ccc23)OC)[C@H]1CO | inactive | inactive | inactive
Cc1ccc(S(=O)(=O)N(C)C[C@H]2OCCCC[C@H](C)Oc3ccc(NS(C)(=O)=O)cc3C(=O)N([C@@H](C)CO)C[C@@H]2C)cc1 | inactive | inactive | inactive
CO[C@H](CN(C)S(=O)(=O)c1ccc(C)cc1)[C@@H](C)CN([C@@H](C)CO)S(=O)(=O)c1cccc(Cl)c1 | inactive | inactive | inactive
COc1ccc(NC(=O)Nc2ccc3c(c2)C(=O)N([C@@H](C)CO)C[C@@H](C)[C@@H](CN(C)Cc2ccccc2)OCCCC[C@H](C)O3)cc1 | inactive | inactive | inactive
O=C(O)c1ccc2nc(O)c(=O)[nH]c2c1 | inactive | inactive | inactive
Cc1cc(C(=O)Nc2cccc3c2O[C@@H](CN(C)Cc2ccc4c(c2)OCO4)[C@H](C)CN([C@H](C)CO)C3=O)n(C)n1 | inactive | inactive | inactive
CC(C)(O/N=C(\C(=O)N[C@@H]1C(=O)N2C(C(=O)O)=C(C[n+]3ccccc3)CS[C@H]12)c1csc(N)n1)C(=O)O | inactive | inactive | inactive
COc1c(-c2ccccc2)oc2cc(O)cc(O)c2c1=O | inactive | inactive | inactive
C[C@H](CO)N1C[C@H](C)[C@@H](CN(C)C(=O)Nc2ccc(C(F)(F)F)cc2)Oc2ccc(NS(=O)(=O)c3ccc(Cl)cc3)cc2C1=O | inactive | inactive | inactive
CO[C@@H](CN(C)S(=O)(=O)c1ccc(C)cc1)[C@H](C)CN([C@H](C)CO)S(=O)(=O)c1cccc(Cl)c1 | inactive | inactive | inactive
COc1ccccc1CNC(=O)C[C@H]1C[C@@H]2c3cc(NS(=O)(=O)c4ccc(F)cc4)ccc3O[C@@H]2[C@@H](CO)O1 | inactive | inactive | inactive
C[C@@H]1CN([C@H](C)CO)C(=O)Cc2cc(N(C)C)ccc2O[C@@H]1CN(C)S(=O)(=O)c1ccc(Cl)cc1 | inactive | inactive | inactive
Cc1noc(C)c1S(=O)(=O)Nc1ccc2c(c1)C(=O)N([C@H](C)CO)C[C@@H](C)[C@@H](CN(C)Cc1ccccc1)OCCCC[C@H](C)O2 | inactive | inactive | inactive
C[C@@H]1CN([C@@H](C)CO)S(=O)(=O)c2ccc(C#Cc3cccc(F)c3)cc2O[C@H]1CN(C)S(=O)(=O)c1ccccc1F | inactive | inactive | inactive
C[C@H](CO)N1C[C@H](C)[C@@H](CN(C)C(=O)Nc2ccc3c(c2)OCO3)Oc2ccc(NC(=O)CCN3CCOCC3)cc2CC1=O | inactive | inactive | inactive
O=C1C[C@@H]2C(=O)NCCN2C(NC(=O)c2ccccc2)=N1 | inactive | inactive | inactive
COc1ccccc1CN(C)C[C@@H]1OCc2ccccc2-c2c(n(C)c3ccccc23)C(=O)N([C@H](C)CO)C[C@H]1C | inactive | inactive | inactive
CCCn1c(N)nc2c1c(=O)n(C)c(=O)n2C | inactive | inactive | inactive
C[C@@H]1CN([C@H](C)CO)C(=O)c2cc(-c3cncnc3)cnc2O[C@H]1CN(C)C(=O)CN1CCOCC1 | inactive | inactive | inactive
